# Data published in the supplement of paper PMC3334620.
# The full ranking holds about 33,000 sequences; the median of “E-score (-0.5 to 0.5)” is about -0.012, and the highest 2% start at about 0.29. The list shows a part of the results.
# Biological target: T1, Ybr033w (UniProt P38073)
# T1 sequence: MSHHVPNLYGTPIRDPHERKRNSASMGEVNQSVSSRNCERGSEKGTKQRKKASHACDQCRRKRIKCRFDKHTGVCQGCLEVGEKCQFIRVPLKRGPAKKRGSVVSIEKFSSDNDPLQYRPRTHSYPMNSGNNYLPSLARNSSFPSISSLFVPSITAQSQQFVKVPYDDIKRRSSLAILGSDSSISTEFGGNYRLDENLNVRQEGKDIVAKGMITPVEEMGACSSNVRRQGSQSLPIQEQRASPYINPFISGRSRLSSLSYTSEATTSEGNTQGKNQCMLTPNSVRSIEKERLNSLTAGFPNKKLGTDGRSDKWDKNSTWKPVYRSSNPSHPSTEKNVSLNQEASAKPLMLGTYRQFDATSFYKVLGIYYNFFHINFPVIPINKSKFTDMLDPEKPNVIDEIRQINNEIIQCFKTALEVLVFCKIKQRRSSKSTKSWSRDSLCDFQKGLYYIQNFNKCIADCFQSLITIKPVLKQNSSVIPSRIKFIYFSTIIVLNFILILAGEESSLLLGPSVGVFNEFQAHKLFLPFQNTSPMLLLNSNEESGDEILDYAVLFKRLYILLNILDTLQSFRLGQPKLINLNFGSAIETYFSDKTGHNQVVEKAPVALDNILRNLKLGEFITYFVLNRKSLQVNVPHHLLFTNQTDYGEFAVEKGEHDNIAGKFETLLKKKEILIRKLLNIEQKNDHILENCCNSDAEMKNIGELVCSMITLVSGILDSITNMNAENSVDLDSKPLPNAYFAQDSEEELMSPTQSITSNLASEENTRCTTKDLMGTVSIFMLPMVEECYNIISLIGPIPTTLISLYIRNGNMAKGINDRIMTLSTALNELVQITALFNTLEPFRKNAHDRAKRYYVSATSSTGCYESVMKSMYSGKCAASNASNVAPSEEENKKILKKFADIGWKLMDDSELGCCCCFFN
# Test: PBM E-score (8-mer binding enrichment) (E-score (-0.5 to 0.5)); higher = stronger / more preferred TF binding; most listed sequences are background and not binding sites
# Conditions: protein concentration: 200 nM; construct: GST-full length
# Experimental: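 Universal 'all 10-mer' protein binding microarrays (Agilent AMADID 015681) probed with GST-tagged S. cerevisiae TFs (full-length or DBD) made by in vitro transcription/translation (PURExpress), about 100-200 nM. Bound TF was detected with fluorescent anti-GST. Each ungapped 8-mer (which stands for itself and its reverse complement) is scored by the PBM enrichment score (E-score), a modified Wilcoxon-Mann-Whitney statistic from -0.5 to +0.5, computed with the Universal PBM Analysis Suite. Scale: above 0.35 generally sequence-specific binding.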
row,Sequence,PBM E-score
1,CTCTGTCA,-0.0348
2,GGTCTGCA,-0.263
3,CGCTACGC,-0.234
4,ACGCTCAT,-0.0548
5,ATTTCGGG,0.00241
6,AAAGGGAC,-0.0798
7,AAACTAGG,0.0193
8,CTCAAAAA,0.0775
9,GGTCCCCA,-0.231
10,GTTGAACA,-0.082
11,TAAGAAAA,0.224
12,CGTTCCAA,0.028
13,CCACAAAC,0.077
14,GCCCGTAC,-0.288
15,AGCCCTCA,-0.181
16,GTTTCATA,0.154
17,AACTTCGG,0.0908
18,CGCAACGA,-0.016
19,ATTTCAGA,-0.0877
20,TTCGGCAA,0.167
21,CAGATGCG,-0.221
22,ACCCGCCA,-0.151
23,AGACCCAG,-0.187
24,GTCTACAA,0.0179
25,AGCTGCCG,-0.115

row,Sequence,PBM E-score
1,ACCCCAGA,-0.119
2,GAATAATC,0.379
3,CTCGGACC,-0.126
4,CAGATTAA,0.291
5,AACCGTAA,-0.0251
6,GTCTGAAA,-0.0395
7,CTAAGCGC,-0.013
8,CAGCCTGC,-0.256
9,AAGGACGG,-0.244
10,ACAAGCAA,0.108
11,CGATGTAC,-0.00411
12,CCGTTCCG,0.034
13,ATGCACAC,0.0304
14,AATTCGTG,0.0162
15,CCTTGCTC,-0.0493
16,CAAAGCGA,0.0356
17,CATGATAG,0.156
18,CGAACTTC,0.0459
19,CTTTGTTC,0.111
20,AATACGGA,0.14
21,GGCGCCTA,-0.126
22,TAGAGCTA,-0.115
23,AACGAGAG,0.102
24,ATGGTACG,0.175
25,GGTCTCAC,-0.00348

row,Sequence,PBM E-score
1,AAGGGTGT,0.0499
2,AGATTAAT,0.284
3,CCCACGGA,-0.0113
4,CGCCCTAA,-0.194
5,ATAATCTA,0.294
6,GGCGTCCC,-0.247
7,ATAAGACC,0.0649
8,CAGCCAGC,-0.233
9,ACCGGCCT,-0.114
10,AACCTTGA,0.149
11,CGCCGGAA,0.153
12,GACACCAA,0.0677
13,CTGTCCCC,-0.319
14,CTTTAATC,0.145
15,CAAGGGAA,0.0793
16,GACTGTCA,-0.114
17,TATAGCAA,0.158
18,CAGAAGTC,-0.272
19,GTCTTAAA,-0.134
20,CACGAAAG,0.0311
21,AGTGAACC,0.0481
22,ACCGCGCC,-0.181
23,CATACGTC,0.0128
24,TGGCGGAA,0.032
25,TCCCCCAA,-0.271

row,Sequence,PBM E-score
1,CTGTGATC,-0.00745
2,GGATTTAA,0.0433
3,ACCGGAAA,0.151
4,AAATCTAT,0.26
5,GCCCATAC,-0.121
6,ATCCCCGC,-0.176
7,AAGCCAGG,-0.128
8,GATTATAC,0.208
9,ATAGGTGA,0.0541
10,CCGACCAG,-0.0851
11,TGCTGCAA,0.0605
12,CTACTCGC,-0.131
13,CAGAGCAA,-0.00344
14,CCGGAACC,-0.16
15,CTGGTGCA,-0.31
16,CATGACTC,-0.109
17,AAGACATG,-0.13
18,CAGCGCAA,-0.112
19,GGCCCAAA,-0.108
20,ACTGGACC,-0.196
21,ATCATGAA,0.171
22,GAATGTGC,-0.0303
23,CGTAAGCA,-0.192
24,AGATAAAC,0.216
25,CAGTCCAG,-0.238

row,Sequence,PBM E-score
1,CGGGCCAG,-0.274
2,CTTGGGGC,-0.271
3,CCATGTGC,-0.00281
4,AATGCAGT,0.0551
5,ACTGGATG,-0.0668
6,AGCCAGGG,-0.362
7,AGCCTCTC,-0.319
8,CAGCAGCG,-0.157
9,CCTGCGAC,-0.231
10,CCACACCG,-0.125
11,AGTTTAAA,0.247
12,ATGAGGGA,-0.0872
13,AGATGTTG,-0.145
14,AGCTAGCA,-0.0795
15,ACAGTTAT,0.0867
16,GACGCTCA,-0.0773
17,GCAGAAGC,-0.105
18,AGGTCGGG,-0.206
19,GACCCCAA,-0.189
20,TCACATAA,-0.00689
21,ACAATGTA,0.0452
22,GCCCGAGC,-0.192
23,ATCGTTAC,0.0005
24,GAGAGTAA,0.234
25,ACCACGCT,-0.118

row,Sequence,PBM E-score
1,ATAGGTTG,0.0182
2,GCAATACA,0.147
3,CAAGATGC,0.0894
4,ATATGCTG,-0.00315
5,GCCCGTTA,-0.266
6,CCCCCATA,-0.348
7,GCTTCGTA,0.0721
8,CATCAGGC,-0.0166
9,ACATCGCA,-0.126
10,CAAGTATC,0.0111
11,ATAAAATC,0.226
12,ACGAGGTG,-0.175
13,AGTCACTA,-0.0279
14,AAGCGCTA,0.0297
15,AATTAACT,0.219
16,AAGCGTAT,0.0673
17,CTCTACGC,-0.0464
18,CCTCGCCG,-0.354
19,CGCGGGCA,0.0744
20,CAGCCTAC,-0.00296
21,ACGGGCGC,-0.125
22,AAAGTCAG,-0.0675
23,CTTACGAC,-0.103
24,CGCATTAG,-0.165
25,CGTGCGAG,0.00923

row,Sequence,PBM E-score
1,AAAACAAG,0.174
2,CAAACTGC,0.151
3,GCCCCTAA,-0.251
4,AGCACGTA,-0.0864
5,CAGTGTGG,-0.227
6,GATACGCC,-0.0158
7,ACGCGTAC,0.0356
8,CTCGGTTC,-0.253
9,AGAGTGCT,0.0308
10,AAGTATTC,0.162
11,AACGCCTT,-0.185
12,ATTTGGCC,-0.0178
13,CAGCTCAA,-0.0471
14,CGGCGTTA,-0.0127
15,ATCATAAT,0.182
16,GGATATAC,0.205
17,ACAGCTCA,-0.146
18,TACGTAGA,0.0979
19,ATAGACAG,0.0501
20,CATTCCGC,-0.0174
21,AACTTGAA,0.251
22,CTTTCTGA,0.233
